From PMC9125540 (Virology Journal, 2022)

Assays:
[1] = test system: influenza A virus PR/8/34 (H1N1); format: cell-based
[2] = test system: influenza A virus PR/8/34 (H1N1); format: cell-based; remark: listed apart in the source
[3] = test system: influenza A virus PR/8/34 (H1N1); details: for Log2 HA decrement (mean ± SD): compared to H1N1, compound at NCTC
[4] = Co-pen, compound at NCTC + H1N1, MDCK
[5] = Co-pen, compound at NCTC + H1N1, MDCK, 48 h, MTT
[6] = Post-pen, compound at NCTC + H1N1, MDCK
[7] = Post-pen, compound at NCTC + H1N1, MDCK, 48 h, MTT
[8] = Pre-pen, compound at NCTC + H1N1, MDCK
[9] = Pre-pen, compound at NCTC + H1N1, MDCK, 48 h, MTT

| SMILES | Percentage of protection (mean ± SD) [1, 4] | Cell viability (mean ± SD) [1, 5] | Percentage of protection (mean ± SD) [1, 6] | Cell viability (mean ± SD) [1, 7] | Percentage of protection (mean ± SD) [1, 8] | Cell viability (mean ± SD) [1, 9] | Reduction of the infectious dose of the virus (TCID50) [2] | Log2 HA decrement (mean ± SD) ([3]; Co-pen (simultaneous)) | Log2 HA decrement (mean ± SD) ([3]; Co-pen (simultaneous), listed as amantadine) | Log2 HA decrement (mean ± SD) ([3]; Post-pen) | Log2 HA decrement (mean ± SD) ([3]; Pre-pen) | Reduction of the infectious dose of the virus (TCID50) ([2]; co-penetration, in comparison with the virus (10^6.5)) | Log2 HA decrement (mean ± SD) ([3]; Co-pen (simultaneous), listed as Asc) | Log2 HA decrement (mean ± SD) ([3]; Post-pen, listed as Asc) | Log2 HA decrement (mean ± SD) ([3]; Pre-pen, listed as Asc) | HA decrement ([3]; treatment not specified (Fig. 1)) | Cell viability (mean ± SD) [1] | Percentage of protection (mean ± SD) [1] | HA titer [3] |
| --- | --- | --- | --- | --- | --- | --- | --- | --- | --- | --- | --- | --- | --- | --- | --- | --- | --- | --- | --- |
| CC(=O)[O-].[Na+] [Acetate, sodium acetate] | 150.66 ± 3.05 | 1.11 ± 0.02 | 94.52 ± 17.04 | 0.82 ± 0.09 | 145.35 ± 3.95 | 1.08 ± 0.02 | 1.75 logs | – | – | – | – | – | – | – | – | – | – | – | – |
| NC12CC3CC(CC(C3)C1)C2 [Amantadine hydrochloride, reference compound] | 57.70 ± 2.73 | 0.89 ± 0.03 | 35.68 ± 27.93 | 0.54 ± 0.05 | 22.08 ± 4.11 | 0.52 ± 0.04 | – | 5.50 ± 0.71 logs | 5.5 ± 0.71 logs | 3.00 ± 2.83 logs | 4.00 ± 1.41 logs | – | – | – | – | – | – | – | – |
| O=C1O[C@H]([C@@H](O)CO)C(O)=C1O [Ascorbate, ascorbic acid] | 505.12 ± 2.35 | 2.97 ± 0.01 | 642.65 ± 40.03 | 3.69 ± 0.21 | 287.06 ± 150.79 | 1.82 ± 0.79 | – | 6.5 logs | – | 4.5 logs | 6.5 logs | 6.5 logs | 6.50 ± 0.71 logs | 4.50 ± 0.71 logs | 6.50 ± 0.71 logs | more than 6 logs | – | – | – |
| O=C(O)CC(O)(CC(=O)O)C(=O)O [Citrate, sodium citrate] | – | – | – | – | – | – | – | – | – | – | – | – | – | – | – | – | 1.34 ± 0.41 and 1.03 ± 0.04 and 0.92 ± 0.03 | 193.77 ± 77.98 and 135.74 ± 7.25 and 115.40 ± 30.31 | 32 and 16 |

Several values for one entry are separate records, joined by “and”; a condition that tells them apart may be missing. Equal values may be shown once. Where a name gives a salt, the structure may show the parent alone. Read-outs that look alike come from different tables or passages of the source.
